The text below walks through data of article PMC12136788.

This is one part of the list.

T1: UNK ZnF1-6 (called full-length) (human, UniProt Q9C0B0 30-357)
T1 sequence: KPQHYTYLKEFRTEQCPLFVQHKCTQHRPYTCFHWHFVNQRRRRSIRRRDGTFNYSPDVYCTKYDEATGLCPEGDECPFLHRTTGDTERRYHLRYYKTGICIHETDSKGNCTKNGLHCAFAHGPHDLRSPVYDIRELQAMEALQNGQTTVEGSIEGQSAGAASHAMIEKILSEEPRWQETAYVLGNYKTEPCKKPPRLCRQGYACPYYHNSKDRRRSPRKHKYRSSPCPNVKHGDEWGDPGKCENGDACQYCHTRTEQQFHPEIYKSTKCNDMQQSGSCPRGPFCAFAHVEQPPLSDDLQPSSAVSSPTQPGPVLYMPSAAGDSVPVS

B1: ENSG00000197063:stop:overlap|stop_codon|ENSG00000197063|stop_codon|NA|stop_codon (ssRNA)
RNA: GGGAGUUCUACAGUCCGACGAUCGCAAGGUGGCCGCCACCAGCGUCAUCACAAUAGUAAAGUCCAAGACGGAUGCCCGAUCGUAGGGACGCGCGUCUGCCCAGGCGGGUCUUUGCGGGGCCACUAGGCACAUGGCGAAUUUGGCAACAGAGGAUUGAGCAUCA
B2: chr6:33573622:33573723:-|3pUTR|ENSG00000030110|unk|FALSE|unique (ssRNA)
RNA: GGGAGUUCUACAGUCCGACGAUCCGAAGUCUUUGCCUUCUCUGUUCCCUUGCAGGGGUCCCCCCUCAAGAGUACAGAAGCUUUAGCAAGUGUGCACUCCAGCUUCGGAGGGCCCCUGCGUGGGGGCCAGUCAGGCUGCAGAGGCAACAGAGGAUUGAGCAUCA
B3: chr7:66987971:66988072:-|3pUTR|ENSG00000126524|unk|FALSE|unique (ssRNA)
RNA: GGGAGUUCUACAGUCCGACGAUCAAGUUACUUGAGGCAGCUCUUGUGGGUGAAAAGUUAUUUGUACAGUAGAGUAAGAUUAUUAGGGGUAUGUCUAUACAACAAAAGGGGGGGUCUUUCCUAAAAAAGAAAACAUAUGAUGCUCAACAGAGGAUUGAGCAUCA
B4: chr2:55866929:55867030:-|3pUTR|ENSG00000115380|msi1|total|mutant (ssRNA)
RNA: GGGAGUUCUACAGUCCGACGAUCAUUUAAGUCAGCCAAAGAAUAUUGUUACCUUAAAGCACUAUUUUAUUUACCGAUAUAUCCCGUGCAUCUACAUCUCUAUACUGUACACUCACCCAUAAUUCAAACAAUUACACCAUGGUACAACAGAGGAUUGAGCAUCA
B5: ENSG00000198589:be:win_4301|CDS|ENSG00000198589|bound_else_gene|NA|bound_elsewhere_windowed (ssRNA)
RNA: GGGAGUUCUACAGUCCGACGAUCUGUCAUCUGGAGGAAUUUUGCGGCAGUGUCUCCGACUAGUUUGUGCAGUCGCAGUAAGGAAUUGCUUGGAGUGUCAACAGCAUUCACAACUGAAAACUAGGGGAGAUAAAGCCUUGAAACCAACAGAGGAUUGAGCAUCA
B6: chr20:17613772:17613873:-|3pUTR|ENSG00000125844|unk|total|mutant (ssRNA)
RNA: GGGAGUUCUACAGUCCGACGAUCAGCCCCGUGGGUGUGUGGGAGGCCGGGCGCUCUGGGGUCUGUCUGUCAGUGCAAUCGUUCCGUGUUUUUUCAGUGGGGCGGGGCGGGAAGCGGGUGGGACCGGGCAGCCAGUUCUCAAAGCAACAGAGGAUUGAGCAUCA

This experiment concerns the target T1, UNK ZnF1-6 (called full-length). Briefly: nsRBNS (natural sequence RNA bind-n-seq); RBNS binding buffer (assumed for nsRBNS): 25 mM Tris pH 7.5, 150 mM KCl, 3 mM MgCl2, 0.01% Triton X-100, 500 ug/ml BSA, 20 U/ml SUPERase-In, 4 C; UNK is unkempt and MSI1 is Musashi-1; names of the RNAs are library labels; protein concentration not given here; high values mean tight binding.
In turn, B1 registered a binding signal of 0.445 enrichment R.
In turn, B2 displayed a binding signal of 0.485 enrichment R.
The figure for B3 is 0.824 enrichment R.
On to B4, for which the binding signal worked out at 0.625 enrichment R.
The molecule B5 gave a binding signal of 0.455 enrichment R.
Take B6: the binding signal was 1.29 enrichment R.
